Experimental data: patent US20240277736A1, “USE OF PSILOCYBIN IN THE TREATMENT OF NEUROLOGICAL BRAIN INJURY AND MIGRAINES” (priority 2020, published 2024)

System: TBI mice
Assay: Morris water maze test in a mouse model of traumatic brain injury (controlled cortical impact)

CN(C)CCc1c[nH]c2cccc(OP(=O)(O)O)c12 [Psilocybin, 4-phosphoryloxy-N,N-dimethyltryptamine]
Time in the target area (Psi-H (high dose: 50 µM in 20 μl saline i.n.), Day 3 (PID3, before drug treatment)): 2.89 ± 0.57 s | Time in the target area (Psi-H (high dose: 50 µM in 20 μl saline i.n., day 4 to day 8 after CCI), Day 10): 3.72 ± 0.26 s | Time in the target area (Psi-H (high dose: 50 µM in 20 μl saline i.n., day 4 to day 8 after CCI), Day 14): 3.45 ± 0.18 s | Time in the target area (Psi-H (high dose: 50 µM in 20 μl saline i.n., day 4 to day 8 after CCI), Day 21): 3.88 ± 0.18 s | Time in the target area (Psi-L (low dose: 50 µM in 10 μl saline i.n.), Day 3 (PID3, before drug treatment)): 3.21 ± 0.84 s | Time in the target area (Psi-L (low dose: 50 µM in 10 μl saline i.n., day 4 to day 8 after CCI), Day 10): 2.87 ± 0.45 s | Time in the target area (Psi-L (low dose: 50 µM in 10 μl saline i.n., day 4 to day 8 after CCI), Day 14): 2.82 ± 0.45 s | Time in the target area (Psi-L (low dose: 50 µM in 10 μl saline i.n., day 4 to day 8 after CCI), Day 21): 2.51 ± 0.41 s
